Several values for one entry are separate records, joined by “and”; a condition that tells them apart may be missing. Identical values can stand only once. The whole screen tested about 390,000 compounds, of which about 17,000 (4.4%) were called active. Inconclusive results, whose numbers are uncertain, are shown with a selection of clear calls. Calls come from the whole dose curve; as a rule, active = well fitted inhibition curve with a large enough effect; inconclusive = small, poorly fitted or top-dose-only effect; inactive = no such curve, though single readings can be large or run the other way. Potencies beside an inconclusive call are fits to weak or partial responses and may not hold up.
target: Lysine-specific demethylase 4A (Homo sapiens) (UniProt O75164); test: qHTS Assay for Inhibitors of JMJD2A-Tudor Domain; settings: AlphaScreen JMJD2A-Tudor / H3K4me3 peptide binding; activity change, negative = inhibition: at 114 µM (top of the series); note: nearly all actives have a fitted effect of over 50% in size
% is set by controls: 0 for no effect and ±100 for the full control effect; potency is the fitted concentration of half-maximal effect; tags give direction and shape of the fitted curve.

Sequence of UniProt O75164 (O75164 whole entry, looked up, the tested form may be a part): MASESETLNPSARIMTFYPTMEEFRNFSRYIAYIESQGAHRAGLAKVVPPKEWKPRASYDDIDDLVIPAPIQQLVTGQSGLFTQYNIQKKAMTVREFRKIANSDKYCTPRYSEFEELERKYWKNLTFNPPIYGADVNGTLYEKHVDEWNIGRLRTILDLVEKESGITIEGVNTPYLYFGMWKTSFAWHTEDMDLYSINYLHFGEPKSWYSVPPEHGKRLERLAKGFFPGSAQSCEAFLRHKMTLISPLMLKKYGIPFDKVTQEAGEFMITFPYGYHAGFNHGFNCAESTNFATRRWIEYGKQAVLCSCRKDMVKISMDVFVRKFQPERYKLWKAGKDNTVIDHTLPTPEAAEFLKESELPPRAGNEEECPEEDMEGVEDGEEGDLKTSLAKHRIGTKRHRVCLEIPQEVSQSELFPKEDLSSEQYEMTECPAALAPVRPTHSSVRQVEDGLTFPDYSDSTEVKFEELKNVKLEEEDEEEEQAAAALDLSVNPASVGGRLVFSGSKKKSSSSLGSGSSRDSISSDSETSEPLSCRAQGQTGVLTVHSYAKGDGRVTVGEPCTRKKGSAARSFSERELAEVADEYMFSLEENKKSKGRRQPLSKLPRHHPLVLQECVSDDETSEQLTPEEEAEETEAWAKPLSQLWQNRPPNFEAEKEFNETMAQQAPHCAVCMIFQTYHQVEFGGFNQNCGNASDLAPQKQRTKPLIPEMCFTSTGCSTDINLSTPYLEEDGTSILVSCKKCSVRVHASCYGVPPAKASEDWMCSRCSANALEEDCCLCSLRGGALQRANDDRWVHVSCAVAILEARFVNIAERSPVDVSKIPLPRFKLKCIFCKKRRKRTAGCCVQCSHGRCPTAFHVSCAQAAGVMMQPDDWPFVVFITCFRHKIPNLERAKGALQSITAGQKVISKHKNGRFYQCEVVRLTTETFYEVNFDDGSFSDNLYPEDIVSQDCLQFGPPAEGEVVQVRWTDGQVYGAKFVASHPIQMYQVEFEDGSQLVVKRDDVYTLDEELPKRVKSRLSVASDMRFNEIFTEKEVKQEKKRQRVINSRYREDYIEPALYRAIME

Potency, inconclusive:
CCn1c(Cc2cccn2C)nnc1SCC(=O)c1ccc(C)cc1 89.1 µM [inhibitor, single point]
CC(C)N(C(=O)[C@H]1C[C@H](CC(=O)NCCC2=CCCCC2)C(=O)N2CCc3c([nH]c4cc(-c5ccco5)ccc34)[C@]12C)C(C)C 17.8 µM [inhibitor, full curve]
C=CCn1c(=S)[nH]c2scc(-c3ccc(C)o3)c2c1=O 70.8 µM [inhibitor, partial curve, poor fit]
O=C(NCCN1CCCCCC1)c1ccc(CS(=O)(=O)c2ccc(Br)cc2)o1 56.2 µM [inhibitor, partial curve]
O=C(O)C1CCC(Cn2c(SCc3cc(=O)n4cc(Br)ccc4n3)nc3ccsc3c2=O)CC1 (stereo unspecified) 89.1 µM [inhibitor, partial curve]
NC(=O)CC(NC(=O)c1ccc(Br)cc1)c1ccc(NC2CCCCCCC2)c([N+](=O)[O-])c1 (stereo unspecified) 22.4 µM [inhibitor, full curve]
COCCCN=C1NN=C(c2cc(C)n(-c3ccccc3F)c2C)CS1 22.4 µM [inhibitor, single point]
CCc1nc(SCC(=O)NC2CCCC2)c2oc3ccccc3c2n1 56.2 µM [inhibitor, partial curve, poor fit]
COc1cc(Nc2c3ccccc3nc3ccccc23)cc(OC)c1OC 28.2 µM [inhibitor, single point]
CCOC(=O)c1cnc(SCC(=O)Nc2ccc(NC(=O)CC)c(OC)c2)nc1N 100 µM [inhibitor, partial curve]
CC(C)N(C(C)C)S(=O)(=O)c1ccc(NC(=O)c2cnccn2)cc1 3.98 µM [inhibitor, single point]
O=C(Nc1nccs1)c1nc[nH]c1C(=O)NCc1ccccc1 100 µM [inhibitor, partial curve, poor fit]
Cc1cc(NC(=O)CSc2nc3c(C)cccc3cc2C#N)no1 39.8 µM [inhibitor, single point]
Cc1cc([N+](=O)[O-])ccc1NC(=S)NC(=O)Cc1ccccc1 17.8 µM [inhibitor, partial curve]
Cc1cc(C)c(NC(=O)c2c[nH]c(=S)n2-c2ccc(F)cc2)c(C)c1 22.4 µM [inhibitor, single point]
CC1(C)OC(C)(C)/C(=C/Nc2ccc(O)cc2)C1=O 56.2 µM [inhibitor, partial curve]
CC1=CS(=O)(=O)CC1Sc1ncn[nH]1 (stereo unspecified) 89.1 µM [inhibitor, single point]
O=C(N/N=C/c1ccco1)c1ccc(C(=O)N/N=C/c2ccco2)o1 25.1 µM [inhibitor, full curve]
CC(Oc1ccccc1Cl)C(=O)Nc1ccc(S(=O)(=O)Nc2nccs2)cc1 (stereo unspecified) 56.2 µM [inhibitor, partial curve, poor fit]
Cc1cccc(N2CCN(C(=O)CCCn3c(=O)c4cccn4c4cccnc43)CC2)c1C 17.8 µM [inhibitor, full curve, poor fit]
CCCC(=O)Nc1nnc(S(=O)(=O)N(C)Cc2ccco2)s1 15.8 µM [inhibitor, full curve, poor fit]
CCn1c2c(c(=O)n3ncc(C(=O)Nc4cccc(Cl)c4C)c13)CN(Cc1ccc(OC)cc1)CC2 56.2 µM [inhibitor, partial curve]
C/C(=N\Nc1ccc([N+](=O)[O-])cc1)c1cccc(N)c1 56.2 µM [inhibitor, partial curve]
Cc1onc(-c2ccccc2)c1C(=O)Nc1nc(-c2ccccc2)cs1 79.4 µM [inhibitor, single point]
Cc1cc(=O)[nH]c(SCC(=O)N2CCCC2)n1 39.8 µM [inhibitor, single point]
Oc1[nH]c2ccccc2c1N=NC(=S)NCC1CCCO1 (stereo unspecified) 50.1 µM [inhibitor, partial curve]
COc1ccc(C(=O)/C=C/c2ccc(OC)c(CN3CCOCC3)c2)cc1 56.2 µM [inhibitor, partial curve]
O=[N+]([O-])c1cccc(COc2ncnc3cc([N+](=O)[O-])ccc23)c1 50.1 µM [inhibitor, partial curve]
CCC[C@@H](CN1CCC[C@H]1CN1C(N)=NC[C@H]1CC(C)C)N1C[C@@H](Cc2ccccc2)N(CCc2ccc(Cl)c(Cl)c2)C1=N 56.2 µM [inhibitor, partial curve]
Cc1cnc(NC(=O)Nc2ccc(OCc3ccccc3)cc2)c(Br)c1 25.1 µM [inhibitor, full curve]
CC(NC(=O)C(=O)NN=C1CCCC1)c1ccccc1 (stereo unspecified) 50.1 µM [inhibitor, partial curve, poor fit]
Cc1cccc2c1-c1sc(C(=O)NCCc3ccc(Cl)cc3)cc1CO2 50.1 µM [inhibitor, partial curve]
O=C(NC1CCCC1)C(c1ccccn1)N(C(=O)c1csnn1)C1CCCCC1 (stereo unspecified) 35.5 µM [inhibitor, partial curve]
O=C(CBr)c1ccc([N+](=O)[O-])c(CS(=O)(=O)c2ccc(Cl)cc2)c1 100 µM [inhibitor, partial curve, poor fit]
O=C(Cc1cc(=O)[nH][nH]1)N/N=C/C=C/c1ccccc1 79.4 µM [inhibitor, single point]
O=C(Nc1ccc(Cl)c(S(=O)(=O)N2CCOCC2)c1)c1cc(-c2ccccn2)nc2ccccc12 39.8 µM [inhibitor, partial curve]
COCCOC(=O)C(CC(=O)O)NCc1ccco1 (stereo unspecified) 7.08 µM [inhibitor, single point]
C#CCOCCOCCOCCNc1nc(N2CCN(C(=O)CCCCCCCCCCNC(=O)Cn3cc(C[C@@H](C)O)nn3)CC2)nc(N2CCN(C(=O)CCCCCCCCCCNC(=O)[C@H](CCCCN)n3cc(CCCC(=O)O)nn3)CC2)n1 100 µM [inhibitor, partial curve]
CCN(CC)CCN(C(=O)CN1C(=O)c2ccccc2C1=O)c1nc2cc3c(cc2s1)OCO3 44.7 µM [inhibitor, partial curve]
COc1ccc(NC(=O)c2ccc3c(c2)c(C)c(C)n3Cc2ccc(F)cc2)cc1 14.1 µM [inhibitor, full curve, poor fit]
CC(C)(C)c1ccc(C(=O)Nc2ccc(O)c3c(=O)cc(-c4cccc(Cl)c4)oc23)cc1 56.2 µM [inhibitor, single point]

Potency, active:
Cc1cccc2sc(N(CCN(C)C)C(=O)C3CCN(S(=O)(=O)c4cccs4)CC3)nc12 56.2 µM
CCCC(=O)N(Cc1cc(=O)[nH]c2ccccc12)c1ccc(C)cc1 89.1 µM
COc1ccccc1N1CCN(/N=C/c2c(C)nn(-c3ccccc3)c2C)CC1 39.8 µM
Cc1cccc(-c2nc(SCC(=O)Nc3cccc(C(F)(F)F)c3)n3[nH]c(=O)cc3n2)c1 50.1 µM
O=C1C(Nc2ccccc2)=C(N2CCCCC2)C(=O)c2ccccc21 39.8 µM
O=S1(=O)Nc2c(ccc3cccnc23)-c2ccccc21 20 µM and 5.62 µM
O=C(CCNS(=O)(=O)c1ccc2c(c1)CCN2C(=O)C1CC1)N1CCN(c2ccc(F)cc2)CC1 44.7 µM
COc1ccccc1C1C2=C(N=c3s/c(=C/c4cccc(OCC(=O)O)c4)c(=O)n31)c1ccccc1CC2 (stereo unspecified) 35.5 µM
O=C(CCCC(=O)N(c1cccc(F)c1)C(C(=O)NC1CCCC1)c1ccc(O)cc1)Nc1ccccn1 (stereo unspecified) 79.4 µM
CN(C)c1ccc(-c2cc[nH]c(=O)c2N)cc1 20 µM
Oc1ccc(CN2CCc3ccccc3C2)c2cccnc12 10 µM

Activity change, negative = inhibition, inactive:
C=CCOc1ccc(/C=C/C(=O)OCC(=O)NCC(=O)Nc2c(C)cc(C)cc2C)cc1 -20.7%
COC(=O)c1ccc(-n2c(/C=C\c3cccc(Br)c3)nc3ccccc3c2=O)cc1 -15.3%
COc1ccc(N2C(=O)CSC2c2ccccc2F)c(OC)c1 (stereo unspecified) -10.8%
CCCn1c(SCC(O)c2cccc(OC)c2)nc2ccccc21 (stereo unspecified) -8.49%
Cc1ccc(O)c(Cn2nnc3ccccc32)c1 -6.29%
CCOC(=O)c1c(C)[nH]c(C)c1S(=O)(=O)N1CCC(C(=O)NCc2ccc(C)cc2)CC1 -17.2%
CCCC(O)c1nc2ccccc2n1CCCCOc1ccc(OC)cc1 (stereo unspecified) -13.9%
CCN1C(C(=O)c2ccccc2)=C(OC(=O)C(C)C)c2ccccc2S1(=O)=O -29.2%
CCOC(=O)c1ccc(NC(=O)Nc2ncccc2C)cc1 -5.14%
O=C(Cc1cc(=O)[nH]c(=O)[nH]1)NCc1ccccc1 0%
Cc1cc(C(=O)OCC(=O)Nc2nnc(C(C)C)s2)c2ccccc2n1 -14.8%
CCN1CCN(Cc2nc3cc(NC(=O)c4ccccc4[N+](=O)[O-])ccc3n2CC)CC1 -0.993%
C=C(C)CN1C(=O)C(O)(CC(=O)c2ccc3c(c2)OCCO3)c2ccccc21 (stereo unspecified) -8%
O=C(Nc1ccc(NC(=S)NC(=O)c2ccccc2Cl)cc1)c1cccc(Cl)c1 -21.5%

Source: PubChem BioAssay AID504339 (National Center for Advancing Translational Sciences (NCATS), 2011)
